Laboratory results taken from patent US20260216325A1, “NOVEL IMIDAZOPYRIMIDINE COMPOUND AND USES THEREOF” (The Children's Medical Center Corporation, priority 2023, published 2026).

Key:
Balb/c adult mice = assay: Spike immunization in Balb/c mice, Spike-specific IgG and IgG1 by ELISA; type: in vivo, mouse; settings: 100 nmol IM with Spike 1 μg, Days 0, 14 and 28
C57BL/6 adult mice = type: in vivo; settings: 100 nmol/mouse IM with rHA, 28 days post-immunization
[1] = Body weight after vaccination; type: in vivo, C57BL/6 mice; settings: 6-8 weeks old mice, rHA admixed with 100 nmol IM, up to 3 days post vaccination
[2] = tested on: bone marrow derived macrophages (BMDM); assay: TNF production in bone marrow derived macrophages from WT and TLR7−/− mice; type: cell-based, mouse; settings: 20-24 hrs
human PBMCs = assay: TNF production in human PBMCs after pre-treatment with TLR antagonists; type: cell-based
WT or TLR7−/− mice = type: in vivo, mouse; settings: single dose 100 nmoles IM with rHA, 28 days post-immunization; TLR7−/− vs WT
Solubility = type: physicochemical; settings: over PVP-037.1
[3] = type: in vivo, C57BL/6J mice; settings: mouse, single intravenous administration, up to 8 hours post-administration; relative to PVP-037.1

Cc1cnc2nc(-c3ccc(C)c(NC(=O)c4ccc(CN)cc4C(F)(F)F)c3)cn2c1 [Compound (1), 4-(Aminomethyl)-N-(2-methyl-5-(6-methylimidazo[1,2-a]pyrimidin-2-yl)phenyl)-2-(trifluoromethyl) benzamide]
adjuvanticity (Spike-specific IgG and IgG1) (Balb/c adult mice): robust adjuvanticity
anti-rHA IgG titers (C57BL/6 adult mice; prime only, vs rHA alone): increased
antigen-specific (rHA) IgG1 production (C57BL/6 adult mice; single immunization): significantly enhance
antigen-specific (rHA) IgG2c production (C57BL/6 adult mice; single immunization): significantly enhance
body weight change [1]: maintained normal weight gains
body weight change ([1]; listed as PVP-037.2): No significant differences
TNF production in BMDM ([2]; 100 μM, ELISA): induced TNF production
TNF response in BMDM from TLR7−/− mice versus WT ([2]; PVP compounds 100 μM, LPS 100 ng/mL): significantly reduced
activity (TNF) after treatment with ODN 2088 (TLR7/8/9 antagonist) (human PBMCs; human PBMC, antagonist 1 hr, supernatants after 20-24 hrs): near total loss of activity
induced TNF production with ODN 20958 (TLR7 specific antagonist) (human PBMCs; human PBMCs, antagonist 1 hr, supernatants after 20-24 hrs): completely blocked
induced cytokine production with CU-CPT9a (selective TLR8 inhibitor) (human PBMCs; human PBMCs, not shown): did not affect
rHA-specific IgG2c class switched Ab response in TLR7−/− mice (WT or TLR7−/− mice): significant reduction
solubility (Solubility): improved solubility
clearance from blood plasma [3]: enhanced clearance
